# The supplement of paper PMC8728848
# Some of the results follow.
# Assays:
# Assay in all cases: glycan array binding signal (z-score within array); higher = stronger binding
# Conditions in all cases: glycan notation: IUPAC condensed, linker removed
# [1] = target: Neu5Ac(a2-3)Gal(b1-4)GlcNAc(b1-3)Gal(b1-4)GlcNAc(b1-2)Man(a1-3)[Neu5Ac(a2-3)Gal(b1-4)GlcNAc(b1-3)Gal(b1-4)GlcNAc(b1-2)Man(a1-6)]Man(b1-4)GlcNAc(b1-4)GlcNAc
# How it was run: (§1)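 Negative Z-scores can be read as non-binding. The Z-score is calculated within each array and then averaged across arrays of one protein sequence at different concentrations or buffers and across linkers. Arrays, 3228 in all, were curated from the Consortium for Functional Glycomics database and kept only where the protein sequence was available.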
# [2] = target: Neu5Ac(a2-3)Gal(b1-4)GlcNAc(b1-3)Gal(b1-4)GlcNAc(b1-3)Gal(b1-4)GlcNAc
# How it was run: as §1
# [3] = target: Neu5Ac(a2-3)Gal(b1-4)GlcNAc(b1-3)Gal(b1-4)GlcNAc(b1-3)Gal(b1-4)GlcNAc(b1-2)Man(a1-3)[Neu5Ac(a2-3)Gal(b1-4)GlcNAc(b1-3)Gal(b1-4)GlcNAc(b1-3)Gal(b1-4)GlcNAc(b1-2)Man(a1-6)]GalNAc
# How it was run: as §1
# [4] = target: Neu5Ac(a2-3)Gal(b1-4)GlcNAc(b1-3)Gal(b1-4)GlcNAc(b1-3)GalNAc
# How it was run: as §1
# [5] = target: Neu5Ac(a2-3)Gal(b1-4)GlcNAc(b1-3)Gal(b1-4)GlcNAc(b1-3)[Neu5Ac(a2-3)Gal(b1-4)GlcNAc(b1-3)Gal(b1-4)GlcNAc(b1-6)]GalNAc
# How it was run: as §1
# [6] = target: Neu5Ac(a2-3)Gal(b1-4)GlcNAc(b1-3)Gal(b1-4)GlcNAc(b1-6)[Gal(b1-3)]GalNAc
# How it was run: as §1
# [7] = target: Neu5Ac(a2-3)Gal(b1-4)GlcNAc(b1-3)Gal(b1-4)[Fuc(a1-3)]GlcNAc
# How it was run: as §1
# [8] = target: Neu5Ac(a2-3)Gal(b1-4)GlcNAc(b1-3)GalNAc
# How it was run: as §1
# [9] = target: Neu5Ac(a2-3)Gal(b1-4)GlcNAc(b1-3)[Neu5Ac(a2-3)Gal(b1-4)GlcNAc(b1-6)]GalNAc
# How it was run: as §1
# [10] = target: Neu5Ac(a2-3)Gal(b1-4)GlcNAc(b1-6)GalNAc
# How it was run: as §1
# [11] = target: Neu5Ac(a2-3)Gal(b1-4)GlcNAc(b1-6)[Gal(b1-3)]GalNAc
# How it was run: as §1
# [12] = target: Neu5Ac(a2-3)Gal(b1-4)GlcNAc(b1-6)[Neu5Ac(a2-3)Gal(b1-3)]GalNAc
# How it was run: as §1
# [13] = target: Neu5Ac(a2-3)Gal(b1-4)GlcNAc6S
# How it was run: as §1
# [14] = target: Neu5Ac(a2-3)Gal(b1-4)[Fuc(a1-3)]GlcNAc
# How it was run: as §1
# [15] = target: Neu5Ac(a2-3)Gal(b1-4)[Fuc(a1-3)]GlcNAc(b1-2)Man
# How it was run: as §1
# [16] = target: Neu5Ac(a2-3)Gal(b1-4)[Fuc(a1-3)]GlcNAc(b1-3)Gal
# How it was run: as §1
# [17] = target: Neu5Ac(a2-3)Gal(b1-4)[Fuc(a1-3)]GlcNAc(b1-3)Gal(b1-4)GlcNAc
# How it was run: as §1
# [18] = target: Neu5Ac(a2-3)Gal(b1-4)[Fuc(a1-3)]GlcNAc(b1-3)Gal(b1-4)[Fuc(a1-3)]GlcNAc(b1-3)Gal(b1-4)[Fuc(a1-3)]GlcNAc
# How it was run: as §1
# [19] = target: Neu5Ac(a2-3)Gal(b1-4)[Fuc(a1-3)]GlcNAc(b1-3)GalNAc
# How it was run: as §1
# [20] = target: Neu5Ac(a2-3)Gal(b1-4)[Fuc(a1-3)]GlcNAc(b1-6)[Gal(b1-3)]GalNAc
# How it was run: as §1
# [21] = target: Neu5Ac(a2-3)Gal(b1-4)[Fuc(a1-3)]GlcNAc(b1-6)[Neu5Ac(a2-3)Gal(b1-3)]GalNAc
# How it was run: as §1
# [22] = target: Neu5Ac(a2-3)Gal(b1-4)[Fuc(a1-3)]GlcNAc6S
# How it was run: as §1
# [23] = target: Neu5Ac(a2-3)Gal6S(b1-4)GlcNAc
# How it was run: as §1
# [24] = target: Neu5Ac(a2-3)Gal6S(b1-4)[Fuc(a1-3)]GlcNAc
# How it was run: as §1
# Neu5Ac(a2-3)GalNAc = target: Neu5Ac(a2-3)GalNAc
# How it was run: as §1
# [25] = target: Neu5Ac(a2-3)GalNAc(b1-4)GlcNAc
# How it was run: as §1
# [26] = target: Neu5Ac(a2-3)[GalNAc(b1-4)]Gal(b1-4)Glc
# How it was run: as §1
# [27] = target: Neu5Ac(a2-3)[GalNAc(b1-4)]Gal(b1-4)GlcNAc
# How it was run: as §1
# [28] = target: Neu5Ac(a2-3)[GalNAc(b1-4)]Gal(b1-4)GlcNAc(b1-3)GalNAc
# How it was run: as §1
# [29] = target: Neu5Ac(a2-3)[Neu5Ac(a2-6)]GalNAc
# How it was run: as §1
# Neu5Ac(a2-6)Gal = target: Neu5Ac(a2-6)Gal
# How it was run: as §1
# [30] = target: Neu5Ac(a2-6)Gal(b1-3)GlcNAc(b1-3)[Gal(b1-4)GlcNAc(b1-6)]Gal(b1-4)Glc
# How it was run: as §1
# Neu5Ac(a2-6)Gal(b1-4)Glc = target: Neu5Ac(a2-6)Gal(b1-4)Glc
# How it was run: as §1
# [31] = target: Neu5Ac(a2-6)Gal(b1-4)GlcNAc
# How it was run: as §1
# [32] = target: Neu5Ac(a2-6)Gal(b1-4)GlcNAc(b1-2)Man
# How it was run: as §1
# [33] = target: Neu5Ac(a2-6)Gal(b1-4)GlcNAc(b1-2)Man(a1-3)Man(b1-4)GlcNAc(b1-4)GlcNAc
# How it was run: as §1
# [34] = target: Neu5Ac(a2-6)Gal(b1-4)GlcNAc(b1-2)Man(a1-3)[Gal(b1-4)GlcNAc(b1-2)Man(a1-6)]Man(b1-4)GlcNAc(b1-4)GlcNAc
# How it was run: as §1
# [35] = target: Neu5Ac(a2-6)Gal(b1-4)GlcNAc(b1-2)Man(a1-3)[GlcNAc(b1-2)Man(a1-6)]Man(b1-4)GlcNAc(b1-4)GlcNAc
# How it was run: as §1
binder,measurement,setting,value
"Gal-9-hFc (Mus musculus), O08573-2 (protein) MALFSAQSPYINPIIPFTGPIQGGLQEGLQVTLQGTTKSFAQRFVVNFQNSFNGNDIAFHFNPRFEEGGYVVCNTKQNGQWGPEERKMQMPFQKGMPFELCFLVQRSEFKVMVNKKFFVQYQHRVPYHLVDTIAVSGCLKLSFITFQTQNFRPAHQAPMAQTTIHMVHSTPGQMFSTPGIPPVVYPTPAYTIPFYTPIPNGLYPSKSIMISGNVLPDATRFHINLRCGGDIAFHLNPRFNENAVVRNTQINNSWGQEERSLLGRMPFSRGQSFSVWIICEGHCFKVAVNGQHMCEYYHRLKNLQDINTLEVAGDIQLTHVQT",glycan array binding signal (z-score),[1],0.149
same,glycan array binding signal (z-score),[2],-0.291
same,glycan array binding signal (z-score),[3],0.936
same,glycan array binding signal (z-score),[4],-0.347
same,glycan array binding signal (z-score),[5],-0.279
same,glycan array binding signal (z-score),[6],-0.139
same,glycan array binding signal (z-score),[7],-0.352
same,glycan array binding signal (z-score),[8],-0.113
same,glycan array binding signal (z-score),[9],-0.258
same,glycan array binding signal (z-score),[10],-0.354
same,glycan array binding signal (z-score),[11],0.436
same,glycan array binding signal (z-score),[12],-0.301
same,glycan array binding signal (z-score),[13],0.075
same,glycan array binding signal (z-score),[14],-0.627
same,glycan array binding signal (z-score),[15],-0.352
same,glycan array binding signal (z-score),[16],-0.599
same,glycan array binding signal (z-score),[17],-0.249
same,glycan array binding signal (z-score),[18],-0.565
same,glycan array binding signal (z-score),[19],0.22
same,glycan array binding signal (z-score),[20],0.102
same,glycan array binding signal (z-score),[21],0.233
same,glycan array binding signal (z-score),[22],-0.309
same,glycan array binding signal (z-score),[23],-0.251
same,glycan array binding signal (z-score),[24],0.075
same,glycan array binding signal (z-score),Neu5Ac(a2-3)GalNAc,-0.229
same,glycan array binding signal (z-score),[25],-0.356
same,glycan array binding signal (z-score),[26],-0.51
same,glycan array binding signal (z-score),[27],-0.526
same,glycan array binding signal (z-score),[28],-0.282
same,glycan array binding signal (z-score),[29],-0.344
same,glycan array binding signal (z-score),Neu5Ac(a2-6)Gal,-0.702
same,glycan array binding signal (z-score),[30],-0.655
same,glycan array binding signal (z-score),Neu5Ac(a2-6)Gal(b1-4)Glc,-0.373
same,glycan array binding signal (z-score),[31],-0.499
same,glycan array binding signal (z-score),[32],0.192
same,glycan array binding signal (z-score),[33],-0.184
same,glycan array binding signal (z-score),[34],0.818
same,glycan array binding signal (z-score),[35],-0.015
